This passage reports z-score results from PubChem BioAssay AID488969 (Vanderbilt High Throughput Screening Facility, 2010).

In all, about 110,000 compounds were measured (“z-score”: median about -0.1, highest 2% from about 2 on). This is one part of the list. Active and inactive are the calls of the source.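 The calls were made as follows: active = z-score in the third read window above 3 or below -3; inactive = the rest.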

This assay has as its target Metabotropic glutamate receptor 8 (Rattus norvegicus) (UniProt P70579). The assay is described as follows: rat mGluR8 modulators via GIRK flux, primary screen, cell-based, thallium flux, HTS (AID 488969). The note with it: HEK293 rat mGluR8, GIRK (G protein-gated inwardly rectifying potassium channel) thallium flux, FluoZin2; at 10 µM; stronger effect = higher value; submaximal glutamate (EC20) added with thallium.
Sequence of UniProt P70579 (P70579 whole entry, looked up): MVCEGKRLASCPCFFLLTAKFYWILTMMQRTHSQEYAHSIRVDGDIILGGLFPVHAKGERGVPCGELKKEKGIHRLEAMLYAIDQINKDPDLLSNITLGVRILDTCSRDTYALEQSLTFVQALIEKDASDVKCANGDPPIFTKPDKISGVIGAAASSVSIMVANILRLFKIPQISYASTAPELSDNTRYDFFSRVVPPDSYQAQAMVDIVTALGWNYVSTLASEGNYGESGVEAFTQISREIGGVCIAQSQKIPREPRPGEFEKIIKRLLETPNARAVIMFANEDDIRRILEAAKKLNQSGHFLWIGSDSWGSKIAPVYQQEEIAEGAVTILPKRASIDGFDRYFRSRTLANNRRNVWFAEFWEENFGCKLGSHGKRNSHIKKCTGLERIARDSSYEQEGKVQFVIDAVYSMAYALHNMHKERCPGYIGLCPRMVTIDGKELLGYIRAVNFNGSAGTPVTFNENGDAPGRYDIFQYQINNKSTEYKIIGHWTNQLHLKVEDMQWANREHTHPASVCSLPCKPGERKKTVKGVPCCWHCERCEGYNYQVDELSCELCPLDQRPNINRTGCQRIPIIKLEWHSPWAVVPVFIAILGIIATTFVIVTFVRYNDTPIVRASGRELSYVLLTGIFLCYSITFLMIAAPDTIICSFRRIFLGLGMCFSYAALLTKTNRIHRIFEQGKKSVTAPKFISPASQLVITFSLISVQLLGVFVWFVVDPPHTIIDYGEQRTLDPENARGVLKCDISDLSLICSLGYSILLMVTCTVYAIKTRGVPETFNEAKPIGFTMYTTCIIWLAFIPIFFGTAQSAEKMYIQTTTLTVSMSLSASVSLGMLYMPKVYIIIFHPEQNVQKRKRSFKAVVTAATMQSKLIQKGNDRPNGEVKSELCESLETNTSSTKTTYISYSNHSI
Compound `Cn1c(SCc2ccccc2Cl)nnc1-c1cnccn1` showed a z-score of -0.387.

Turning to `Cc1cc(Cl)ccc1NC(=O)CCC(=O)O`, the z-score was -0.227.

`CC1/C(=N/O)CC(c2ccccc2)NC1c1ccccc1` (stereo unspecified) returned a z-score of -0.071.

Turning to `COC(=O)c1ccc(C2CC(=O)Nc3cc(OC)c(OC)cc32)cc1` (stereo unspecified), the z-score turned out to be 0.0182.

The compound `NC(=O)CSc1nnc(-c2cc(-c3cccs3)nc3ccccc23)o1` registered a z-score of -0.323.

With `Cc1nc2ccc(NC(=S)NC(C)C)cc2nc1C`, the z-score was -0.0416.

As for `COc1ccc(OC)c(NC(=O)CSc2nc(C)cs2)c1`, the z-score was determined as 0.389.

In the case of `CN(C(=O)c1ccc2c(c1)C(=O)N(CCC1=CCCCC1)C2=O)C1CCCCC1`, the z-score stood at 0.422.

Compound `CC(Sc1nc(-c2ccccc2)cc(C(F)(F)F)n1)C(=O)N1CCOCC1` (stereo unspecified) returned a z-score of -0.153.

On to `COc1ccc(C(=O)Nn2c(C)ccc2C)cc1OC`, for which the z-score worked out at 0.582.

On to `Clc1ccccc1-c1nc2ccccc2c2nncn12`, for which the z-score was -0.0267.

For the compound `Cc1sc2nc(C3CC3)nc(SCC(=O)N3CC(=O)Nc4ccccc43)c2c1C`, the z-score is active: 3.69.

Compound `Cc1ccc(C(=O)Nc2nncs2)cc1S(=O)(=O)N1CCOCC1` returned a z-score of 0.137.

Regarding `COCc1cc(C)nc(NC2CCCCC2)c1C#N`, the z-score was -0.242.

In the case of `COC(=O)c1ccccc1NC(=O)n1cc(C)cn1`, the z-score turned out to be 0.0551.

In turn, `CCCNC(=O)CCn1c(-c2ccc(C)cc2)cc(C(=O)OCC)c1C` yielded a z-score of -0.234.

`Cc1ccc(S(=O)(=O)N(C)CCCC(=O)n2nc(C)cc2C)cc1` showed a z-score of 0.215.

With `O=C(COC(=O)Cc1ccc(S(=O)(=O)N2CCOCC2)s1)NCc1ccccc1`, the z-score is 1.9.

The compound `O=C(Nc1cccc(Oc2c(F)c(F)c(F)c(F)c2F)c1)N1C[C@@H]2C[C@@H](C1)c1cccc(=O)n1C2` yielded a z-score of 0.599.

`Cc1ccc(NC(=O)Cc2nc(CCl)cs2)cc1` showed a z-score of -0.0491.

For `O=C(OCn1ncc(Br)c(Br)c1=O)c1c(F)cccc1F`, the z-score turned out to be 0.165.

As for `FC(F)(F)c1ccc(N2CCN(c3cc(-c4ccccc4)nc4ncnn34)CC2)nc1`, the z-score was -0.657.

The compound `CCOc1cc(/C=C(/C#N)c2nc3ccccc3[nH]2)ccc1Oc1ccc([N+](=O)[O-])cn1` came in with a z-score of -1.65.

`Cc1nc(S(=O)(=O)N(C)Cc2ccccc2)c(C#N)c(C)c1Cl` showed a z-score of -0.0847.

As to `OCCN(CCO)c1ncnc2c1sc1nc(N3CCOCC3)c3c(c12)CCCC3`, the z-score stood at 0.65.

For the compound `Cc1cc(N)c(-n2cc3c(=O)n(C)c(=O)n(C)c3c2)cc1C`, the z-score was 0.679.

In turn, `O=C(NCC(=O)N(c1ccccc1)C(C(=O)NC1CCCC1)c1ccncc1)c1ccco1` (stereo unspecified) returned a z-score of -0.115.

Take `Cc1ccc(/C=N/NC(=S)N2CCOCC2)cc1`: the z-score is active: 4.72.

In the case of `O=C(CCCN1C(=O)c2ccccc2C1=O)Nc1c2c(nc3c1CCC3)CCC2`, the z-score was 0.531.

`O=C(/C=C/c1ccc(Cl)cc1)NCc1cccs1`: the z-score is -0.307.

`O=C1C(=C2SCCCS2)CC/C1=C\c1ccc(F)cc1`: the z-score is -0.247.
